In all, about 220,000 compounds went through this assay and about 16,000 (7.3%) were called active. The shares of active, inactive and inconclusive entries below differ from those in the screen. Calls come from the whole dose curve; as a rule, active = well fitted inhibition curve with a large enough effect (not every such curve was filed as active); inconclusive = small, poorly fitted or top-dose-only effect, or another doubt; inactive = no such curve, though single readings can be large or run the other way. A potency beside an inconclusive call is a rough fit, not a confirmed value.
Target: Aldehyde dehydrogenase 1A1 (Homo sapiens) (UniProt P00352)
Assay: qHTS Assay for Inhibitors of Aldehyde Dehydrogenase 1 (ALDH1A1)
Conditions: Purified ALDH1A1, NADH fluorescence, propionaldehyde substrate; series mostly up to 75.3 µM
Potency is the fitted concentration of half-maximal effect; tags give direction and shape of the fitted curve.

UniProt P00352, sequence (P00352 whole entry, looked up): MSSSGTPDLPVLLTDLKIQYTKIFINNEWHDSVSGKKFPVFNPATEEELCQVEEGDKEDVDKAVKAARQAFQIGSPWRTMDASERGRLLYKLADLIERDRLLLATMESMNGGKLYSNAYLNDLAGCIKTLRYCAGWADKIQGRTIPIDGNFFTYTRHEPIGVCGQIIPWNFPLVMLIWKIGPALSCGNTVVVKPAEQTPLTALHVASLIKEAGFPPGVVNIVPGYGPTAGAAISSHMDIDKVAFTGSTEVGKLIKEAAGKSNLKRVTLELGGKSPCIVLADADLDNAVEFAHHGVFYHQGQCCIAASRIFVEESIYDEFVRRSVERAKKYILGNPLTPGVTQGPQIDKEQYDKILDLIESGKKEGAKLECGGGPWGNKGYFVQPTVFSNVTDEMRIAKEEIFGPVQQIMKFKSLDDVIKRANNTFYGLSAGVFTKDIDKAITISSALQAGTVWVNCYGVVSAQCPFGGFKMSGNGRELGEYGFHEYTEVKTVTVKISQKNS

Potency, inconclusive:
Cc1ccc(SCC(=O)O/N=C(\N)c2cccc([N+](=O)[O-])c2)cc1 39.8 µM [inhibitor, single point]
O=C(c1csnn1)N1CCC2(CC1)CCN(c1ccccn1)CC2 39.8 µM [inhibitor, single point]
Cc1sc2ncn3ncnc3c2c1C 39.8 µM [inhibitor, single point]
C=CCn1c(-c2ccc(S(=O)(=O)N3CCOCC3)cc2)csc1=Nc1ccccc1 31.6 µM [inhibitor, single point]
C/C(=N\NC(=S)Nc1cccc(C)c1)c1ccco1 39.8 µM [inhibitor, single point]
Clc1ccc(OCc2nn3c(-c4ccccc4)nnc3s2)c(Cl)c1 39.8 µM [inhibitor, single point]
CCc1cccc2c(-c3ccccc3)c3c(nc12)OCC3 22.4 µM [inhibitor, partial curve]
CCOc1ccc(NC(=O)CCS(=O)(=O)c2cccc3nsnc23)cc1 39.8 µM [inhibitor, single point]
COC(=O)C1=C(C(=O)OC)C(c2cc(Br)ccc2O)c2sc(=O)[nH]c2S1 (centres undefined) 31.6 µM [inhibitor, partial curve]
CSc1ccc(S(=O)(=O)Nc2ccc(F)cc2)cc1 25.1 µM [inhibitor, single point]
CCCc1nc2oc3c(NCc4ccccn4)ncnc3c2c2c1COC(C)(C)C2 10 µM [inhibitor, partial curve]
N#Cc1cc2ccccc2nc1N 31.6 µM [inhibitor, partial curve]
Cc1ncc([N+](=O)[O-])n1Cc1ccc(Cl)cc1 8.91 µM [inhibitor, single point]
CCOC(=O)CC(=O)CSc1nc(-c2ccccc2)cc(-c2ccc(Cl)cc2)c1C#N 4.47 µM [inhibitor, single point]
COc1ccc2c(C(F)(F)F)cc(=O)oc2c1C 25.1 µM [inhibitor, single point]
CCC(C)NC(=O)c1c(N)n(/N=C/c2cccnc2)c2nc3ccccc3nc12 (centres undefined) 31.6 µM [inhibitor, partial curve]
CCOc1ccccc1N(CC(=O)Nc1cccnc1)S(C)(=O)=O 28.2 µM [inhibitor, single point]
Nc1nc(SCc2ccc(F)cc2)ns1 39.8 µM [inhibitor, single point]
Cc1ccc(CNc2nc3ccc(C)cc3n3cnnc23)cc1 39.8 µM [inhibitor, single point]
O=C1c2ccc(Oc3ccc4c(c3)C(=O)N(CCCO)C4=O)cc2C(=O)N1CCCO 8.91 µM [inhibitor, partial curve]
O=C(COc1ccc2ccc(=O)oc2c1)N1CCc2ccccc21 28.2 µM [inhibitor, partial curve]
O=C(c1cccc(-n2cnnn2)c1)N1CC=C(c2ccccc2)CC1 35.5 µM [inhibitor, single point]
CC1CCN(c2ccc(C(=O)NCc3ccc4c(c3)OCO4)cc2[N+](=O)[O-])CC1 39.8 µM [inhibitor, single point]
CCc1ccccc1NS(=O)(=O)c1ccc(SC)cc1 39.8 µM [inhibitor, single point]
CCOC(=O)Cn1c(=NC(=O)c2cc(-c3cccs3)nc3ccccc23)sc2cc(S(N)(=O)=O)ccc21 28.2 µM [inhibitor, partial curve]
COc1ccccc1NC(=O)c1sc(NC(=O)c2ccco2)c(C#N)c1C 35.5 µM [inhibitor, single point]
Cc1nc2ccccc2n1CC(=O)N1CC(=O)Nc2ccccc21 31.6 µM [inhibitor, single point]

Potency, active:
CCN(CC)c1ccc(NC2=C(Cl)C(=O)c3ccccc3C2=O)cc1 10 µM
CCc1ccccc1NS(=O)(=O)c1ccc2[nH]cc(C(=O)NC3CCCC3)c(=O)c2c1 20 µM
O=C(CC1CCS(=O)(=O)C1)Nc1ccc[nH]c1=O (centres undefined) 25.1 µM
O=[N+]([O-])c1cc2c(cc1/C=N/n1c(-c3ccccn3)n[nH]c1=S)OCO2 28.2 µM
COc1ccc(-c2nsc(SCC(=O)Nc3cc(C)on3)n2)cc1 28.2 µM
Cn1c(CN2CCCC(C(=O)c3ccc4c(c3)OCO4)C2)nc2ccccc21 (centres undefined) 28.2 µM
COc1ccc(OC)c(NS(=O)(=O)c2ccc(SC)cc2)c1 17.8 µM
CN(C)c1ccc(C2C3C(=O)NC(=O)C3ON2c2ccc(Cl)cc2)cc1 (centres undefined) 25.1 µM
O=C(/C=C/c1cccs1)Nc1scc(-c2ccccc2)c1C(=O)O 22.4 µM
Cc1ccc2c(CSc3nc4ccccc4c(=O)n3CCCO)cc(=O)oc2c1C 12.6 µM
CCOc1ccc(C(C)=O)cc1CSc1nnc(-c2cccs2)n1CC1CCCO1 (centres undefined) 8.91 µM

Potency, inactive:
CCOc1ccc2nc(SCC(=O)NC(=O)C(C)C)sc2c1
COC(=O)c1cn(C(=O)c2ccco2)c2ccccc12
Cc1cc(C)c(-n2nnnc2SC(C)C)c(C)c1
CNC(=O)C(=O)N/N=C/c1ccccn1
O=C(Nc1ccc2c(c1)CCC2)c1ccccc1F
O=C(CN1C(=O)NC(Cc2ccccc2)C1=O)Nc1ccc(F)cc1 (centres undefined)
Cc1onc(-c2ccccc2Cl)c1C(=O)Nc1ccc(F)c(F)c1
Cc1c(I)c(=O)n(-c2ccccc2)n1C
CN1C(=O)N(C)C2(c3ccccc3)NC(=O)NC12c1ccccc1 (centres undefined)
COc1ccccc1N1CCN(C[C@@H](O)COc2cccc3ccccc23)CC1
Clc1ccc(Cn2ncc3c(NCc4ccccc4)ncnc32)cc1
